This passage reports z-score results from PubChem BioAssay AID488969 (Vanderbilt High Throughput Screening Facility, 2010).

Molecules are shown by their SMILES. Whole data set: some 110,000 compounds, median “z-score” near -0.1, cut for the highest 2% near 2. This is one part of the list. The source made the active and inactive calls.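 How the source made its calls: active means z-score in the third read window above 3 or below -3; inactive means the rest.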

This test concerns the target Metabotropic glutamate receptor 8 (Rattus norvegicus) (UniProt P70579). Nature of the test: rat mGluR8 modulators via GIRK flux, primary screen, cell-based, thallium flux, HTS (AID 488969). The following applies: HEK293 rat mGluR8, GIRK (G protein-gated inwardly rectifying potassium channel) thallium flux, FluoZin2; at 10 µM; stronger effect = higher value; submaximal glutamate (EC20) added with thallium.
Sequence of UniProt P70579 (P70579 whole entry, looked up): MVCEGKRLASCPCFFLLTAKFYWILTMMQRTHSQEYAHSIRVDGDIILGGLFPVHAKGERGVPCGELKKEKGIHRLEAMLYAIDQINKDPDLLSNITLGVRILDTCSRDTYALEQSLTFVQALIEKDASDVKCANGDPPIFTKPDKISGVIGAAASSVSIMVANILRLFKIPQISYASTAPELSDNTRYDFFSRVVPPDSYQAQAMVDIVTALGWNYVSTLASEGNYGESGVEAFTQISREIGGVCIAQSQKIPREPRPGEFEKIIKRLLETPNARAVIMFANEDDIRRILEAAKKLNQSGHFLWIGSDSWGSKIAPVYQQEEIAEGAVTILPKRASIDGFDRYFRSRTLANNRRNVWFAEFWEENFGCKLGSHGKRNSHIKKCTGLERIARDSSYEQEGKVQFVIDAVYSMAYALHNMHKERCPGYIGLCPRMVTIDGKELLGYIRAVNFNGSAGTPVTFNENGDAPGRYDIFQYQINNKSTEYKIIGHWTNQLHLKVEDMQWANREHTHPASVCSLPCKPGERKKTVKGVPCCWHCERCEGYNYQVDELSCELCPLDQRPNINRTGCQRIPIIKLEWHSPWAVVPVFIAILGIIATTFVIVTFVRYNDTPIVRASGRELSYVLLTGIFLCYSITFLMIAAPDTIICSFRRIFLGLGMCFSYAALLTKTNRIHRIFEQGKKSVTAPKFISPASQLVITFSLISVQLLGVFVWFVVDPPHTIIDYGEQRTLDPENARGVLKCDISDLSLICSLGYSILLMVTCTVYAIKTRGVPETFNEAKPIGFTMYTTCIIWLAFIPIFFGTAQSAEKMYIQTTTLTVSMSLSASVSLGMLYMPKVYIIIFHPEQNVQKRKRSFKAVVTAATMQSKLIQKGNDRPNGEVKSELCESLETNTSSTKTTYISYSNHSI
For `Cc1cccc(N=C2NC(=O)/C(=C/c3cn(C)c4ccccc34)S2)c1`, the z-score was -0.108.
As for `CC1CC(C)CN(CC(O)COc2ccc3c(c2)CCC3)C1` (stereo unspecified), the z-score is 0.225.
As to `COc1ccc2oc(C(=O)OCC(=O)c3ccc4c(c3)OCCO4)c(C)c2c1`, the z-score is -0.327.
In the case of `O=C(Cn1c(C(F)(F)F)nc2ccccc21)c1ccc(Br)cc1` it was -0.0753; in that of `CN(Cc1ccccc1)C(=O)Cn1c(=O)oc2cc(S(=O)(=O)NCc3ccccc3)ccc21`, -0.0728.
To `CC1(C)N=C(c2cccs2)C(C)(C)N1O` belongs -0.029; to `COc1cccc(C(c2c(C)[nH]n(-c3ccccc3)c2=O)c2c(C)[nH]n(-c3ccccc3)c2=O)c1OC`, -0.0701.
`Cc1ccc(-c2nn(-c3ccccc3)cc2CO)o1` gave a z-score of 0.267.
In the case of `COc1ccc2nc(NC(=O)CSc3nc(C)cc(=O)[nH]3)sc2c1` it was 0.103; in that of `CC(Oc1ccccc1)C(=O)Nc1ccc(S(=O)(=O)N2CCOCC2)cc1` (stereo unspecified), 0.987.
The molecule `O=C(O)/C(=C\c1ccco1)NC(=O)c1ccccc1` had a z-score of -0.269.
To `CC1CCCN(CCCNC(=O)CCn2nc(-c3ccccc3)ccc2=O)C1` (stereo unspecified) belongs 0.271; to `CCNC(=O)NC(=O)C(C)OC(=O)c1oc2ccccc2c1CSC1CCCCC1` (stereo unspecified), -0.911.
In turn, `COc1ccc(N2C(=O)C3CCCN3C2c2ccccc2)cc1Cl` (stereo unspecified) displayed a z-score of -0.314.
To `CCN(CC)C(=O)Cn1ncc2c1-c1ccccc1OC2` belongs 0.919; to `CCOCCc1nnc(NC(=O)COC)s1`, -0.0897; to `COc1ccccc1NC(=O)N1CCN(c2ccccn2)CC1`, 0.411.
To `O=C(CSc1ncnc2nc[nH]c12)N1CCOCC1` belongs -0.527; to `CCn1cnc2cc(NCc3ccc(OC)cc3)ccc21`, -0.159.
To `CCN1CCN(CC(=O)NC2CCCCC2)C(=O)C1=O` belongs -0.0589; to `O=C(c1ccc(N2CCCC2=O)cc1)N1CCOCC1`, 0.832.
As for `Cc1cccc(NC(=O)CCCN2C(=O)c3cccc4cccc(c34)C2=O)c1`, the z-score is 0.0083.
As to `N#Cc1c(NC(=O)COC(=O)c2ccc(S(=O)(=O)N3CCCC3)cc2)sc2c1CCCCC2`, the z-score was -0.303.
For `C(=C\c1ccccc1)/CSc1nnc(-c2ccccc2)n1Cc1ccco1`, the z-score was -0.701.
To `CSc1ccccc1NC(=O)c1c(Br)cnn1C` belongs 0.0242; to `NC(=O)c1cc(-c2ccccc2)sc1NC(=O)Cc1ccc(S(=O)(=O)N2CCOCC2)s1`, -0.0282.
In the case of `CNC(=O)Nc1ccc(Cl)cc1` it was 0.332; in that of `CC(=O)N1SC(N)=NC1c1ccccc1` (stereo unspecified), -0.413; in that of `CCOc1cc(C)c(S(=O)(=O)Nc2ccc3cn[nH]c3c2)cc1C`, 0.367.
To `CCOC(=O)Cc1nnc(NC(=O)CSc2ccc(Cl)cc2)s1` belongs -0.259.
`CC1CCC(C(C)C)C(OCC[N+](C)(C)C)C1` (stereo unspecified) registered a z-score of -0.0727.
In the case of `COC(=O)c1ccc(COc2ccccc2/C=C(\C#N)C(=O)Nc2ccccc2C)cc1` it was -0.436; in that of `COc1ccc(/C=C(/C#N)C(=O)NC2CCCCC2)cc1Br`, 0.0154; in that of `O=C1c2ccccc2C(=O)N1Cc1nc2ccccc2c(=O)n1CCN1CCOCC1`, -0.0784.
To `COC(=O)C1CCN(C(=O)NC(C)(C)C)CC1` belongs 0.135; to `CC(C)C(=O)N1CCN(c2ccc(NC(=O)c3ccc4c(c3)OCCO4)cc2Cl)CC1`, -0.0285.
In the case of `COC(=O)NC1CCC(CC2CCC(NC(=O)OC)CC2)CC1` (stereo unspecified) it was 0.0332.
Take `Oc1c(N=Nc2ccccn2)ccc2ccccc12`: the z-score was active: 13.6.
Take `COc1ccc(OC)c2c(C)cc(N3CCN(C(=O)c4ccc(Cl)cc4)CC3)nc12`: the z-score was -0.0445.
In turn, `Cc1ccc(NC(=O)CSC2=Nc3ccccc3C3CC=NN23)c(C)c1` (stereo unspecified) displayed a z-score of 0.371.
The molecule `O=C(NC(NC(=S)Nc1ccc(Cl)cc1Cl)C(Cl)(Cl)Cl)c1cccc([N+](=O)[O-])c1` (stereo unspecified) came in with a z-score of 1.67.
On to `O=C(Nc1nc(=S)ss1)c1ccc(Cl)cc1Cl`, for which the z-score is active: 4.46.
To `Cc1nc2ccccc2nc1OCC(=O)Nc1cc(C(F)(F)F)ccc1N1CCOCC1` belongs -1.17.
In the case of `Oc1ccc(Nc2nc3ccccc3nc2Nc2ccc(O)cc2)cc1` it was -0.339; in that of `CC(C)=C1C(=O)NN(c2cccc(Cl)c2)C1=O`, -0.095; in that of `Cc1cc(=O)oc2cc(OC(C)C(=O)N3CCCc4ccccc43)ccc12` (stereo unspecified), -0.309.
To `CSc1ccc(CCNC(=O)CSc2ccsc2[N+](=O)[O-])cc1` belongs -0.173.
As for `CCc1c(C(=O)NCc2ccc3c(c2)OCO3)[nH]c(C)c1C(C)=O`, the z-score was -0.4.
Take `O=C(/C=C/c1ccco1)c1ccc(NC(=O)C23CC4CC(CC(C4)C2)C3)cc1`: the z-score is -2.44.
In the case of `CCOC(=O)c1[nH]c(C)c(CN(CCc2ccccc2)S(C)(=O)=O)c1C` it was -0.0466.
For the molecule `Cc1cccc2c1N(CCOc1ccccc1Cl)C(=O)C2=O`, the z-score is -0.337.
The molecule `CCCCOC(=O)Nc1nccs1` gave a z-score of -0.0444.
In turn, `Cc1ccc2c(c1)nnn2C1CCN(S(=O)(=O)c2cccc(S(=O)(=O)N(C)C)c2)CC1` came in with a z-score of 0.118.
In the case of `O=C(NCCc1cn2ccsc2n1)c1cccs1` it was 0.237.
To `Cc1ccc(C(C)NC(=O)c2cc(C)oc2C)cc1` (stereo unspecified) belongs 1.04; to `COc1ccc(S(=O)(=O)N2CCOCC2)c(Cl)c1Cl`, -0.116.
Consider `O=C(Nc1ccccc1)Nc1cc(Cl)cc(Cl)c1`, for which the z-score worked out at 0.125.
`CCOC(=O)C1CCCN(c2c(NCCN(C)Cc3ccccc3)c(=O)c2=O)C1` (stereo unspecified) showed a z-score of -0.33.
In the case of `Cc1cc(=O)oc2c(CN3CCC(C)CC3)c(O)c(Cl)cc12` it was 0.38.
Molecule `O=C(c1ccco1)N(CCC(c1ccccc1)c1ccco1)Cc1ccc(F)cc1` (stereo unspecified) had a z-score of -0.207.
With `O=C(CN1CCC(c2nc3ccccc3s2)CC1)NCc1ccccc1`, the z-score was -0.322.
In the case of `O=C(NCc1ccccc1)c1cccc(NS(=O)(=O)c2cccc3cccnc23)c1` it was -0.228; in that of `COc1ccc(-c2csc(/C(C#N)=C\c3cccc([N+](=O)[O-])c3)n2)cc1`, -0.607.
The molecule `CCOC(=O)c1nc(C)n(-c2ccc(Cl)cc2)n1` registered a z-score of 0.115.
For the molecule `COc1ccc(Cl)cc1Nc1nc(C)cc(C)c1C(N)=O`, the z-score came out at 0.336.
In the case of `COc1ccc(C2=NOC(C(=O)Nc3cccnc3)C2)cc1` (stereo unspecified) it was -0.0465; in that of `CN1c2ccccc2C(C)(C)C12CC(c1ccc(S(=O)(=O)N3CCCCC3)cc1)=NO2` (stereo unspecified), -0.0605; in that of `COC(=O)C1C2C=CC3(CN(c4cccc(Cl)c4)C(=O)C13)O2` (stereo unspecified), -0.0902.
Consider `COC(=O)CSc1nc2cc3c(cc2cc1C#N)OCO3`, for which the z-score is -0.566.
In the case of `O=C(NC1CCCCC1)C1CC(O)CN1C(=O)OCc1ccccc1` (stereo unspecified) it was -0.0816; in that of `CCOc1ccc(-n2c(N)c(-c3nc4ccccc4n3C)c3nc4ccccc4nc32)cc1`, -0.274; in that of `O=C(Nc1ccc(N2CCOCC2)cc1)c1cccc(S(=O)(=O)N2CCCC2)c1`, -0.279.
Molecule `CC(NC(=O)Nc1ccc(Cl)c(Cl)c1)C(c1ccccc1)N1CCOCC1` (stereo unspecified) returned a z-score of -0.159.
To `CCCn1cc(SCC(=O)NCc2ccc3c(c2)OCO3)c2ccccc21` belongs -0.245; to `Cc1sc(NC(=O)Cn2[nH]c(=O)c3ccccc3c2=O)nc1-c1ccccc1`, -0.0349.
The molecule `CN(Cc1ccccc1)Cc1nc2c(c(=O)n(C)c(=O)n2C)n1CCCc1ccccc1` showed a z-score of -0.243.
For `COc1ccc(CCNC(=O)CSc2nnc(Cc3csc(N)n3)n2C)cc1OC`, the z-score was 0.544.
To `Cc1ccccc1NC(=O)Cc1nnc(SCC(=O)c2ccc(Br)cc2)n1C` belongs -0.0568.
`CSc1nnc(-c2ccco2)n1-c1ccccc1`: the z-score was -0.201.
In the case of `O=C(C1CCCN(S(=O)(=O)c2cccc3cccnc23)C1)N1CCN(c2ccccc2F)CC1` (stereo unspecified) it was -0.422.
As to `Cc1cc(C(=O)NCc2cccs2)ccc1[N+](=O)[O-]`, the z-score was -0.105.
The molecule `CCOC(=O)C1CCN(c2cc(C)nc3cc(-c4cccc(F)c4)nn23)CC1` came in with a z-score of 0.0509.
Take `O=C(NS(=O)(=O)c1ccccc1)c1ccccc1O`: the z-score worked out at 0.0922.
To `Nc1ccccc1Nc1ccncc1[N+](=O)[O-]` belongs 0.252; to `CCS(=O)(=O)n1nc(-c2ccc(Cl)cc2)nc1SC`, -0.344.
In the case of `CCN(CC)S(=O)(=O)c1ccc(C)c(NC(=O)CSc2nc3ccccc3[nH]2)c1` it was -0.271.
In turn, `COc1ccc(OC)c(N(CC(=O)Nc2ccccc2)S(C)(=O)=O)c1` displayed a z-score of 0.193.
On to `CCOC(=O)c1ccccc1NC1CC(=O)N(c2ccccc2C)C1=O` (stereo unspecified), for which the z-score is -0.0673.
In the case of `CCC(C)(C)NC(=O)C(c1cccn1C)N(Cc1ccc(C)cc1)C(=O)Cn1nnc2ccccc21` (stereo unspecified) it was -1.17; in that of `CN(C)C(=O)Nc1ccc(F)cc1F`, 0.148; in that of `Cc1ccc(CN2CCN(CC(=O)NCc3ccc(Cl)cc3)C2=O)cc1`, -0.228.
In the case of `CCS(=O)(=O)N1CCC(C(=O)OCC(=O)c2ccc(Br)cc2)CC1` it was -0.0779; in that of `NNC(=O)Cn1c(SCc2ccccc2)nc2ccccc21`, -0.178.
In the case of `Cc1ccc(S(=O)(=O)N2CC3(C)CN(S(=O)(=O)c4ccc(C)cc4)CC(C)(C2)C3)cc1` it was -0.039.
Consider `CCN(CCNC(=O)Nc1ccc(Cl)cc1)c1ccccc1`, for which the z-score was -2.19.
In turn, `COc1ccc(CNC(=O)/C=C/c2ccc(S(=O)(=O)NCc3ccco3)cc2)cc1OC` gave a z-score of -0.153.
Molecule `COc1ccc(N=C2NN=C(c3c(C)[nH]c4ccccc34)CS2)cc1` gave a z-score of -0.004.
To `Cc1nc(NC(=O)c2ccccc2)sc1-c1csc(Nc2cccc(Cl)c2)n1` belongs -0.0316.
In the case of `CCOC(=O)c1c(N)sc(C(C)=O)c1C` it was 0.968; in that of `S=C(Nc1ccc(Cl)cc1)c1sc(N2CCCCC2)nc1N1CCOCC1`, -0.435; in that of `FC(F)(F)C12CC(c3ccccc3)=NCCN1CCN2` (stereo unspecified), 0.77.
In the case of `CCN1CCN(S(=O)(=O)c2ccc(Cl)c(C(=O)Nc3nnc(CC(C)C)s3)c2)CC1` it was 0.16; in that of `CCN1C(=O)C2C(C1=O)N1C(c3ccccc3)C3C(=O)N(CC)C(=O)C3N1C2c1ccccc1` (stereo unspecified), 0.0538.
As to `CCOc1ccccc1C(=O)N(CCC(=O)OC)c1ccccn1`, the z-score is -0.297.
With `COc1ccc2c(c1OC)C(=O)N(c1cccc(C(F)(F)F)c1)C2`, the z-score was 0.193.
To `CCOc1cc(/C=C2/C(=N)N3C=CSC3=NC2=O)ccc1OCCCOc1ccccc1C` belongs -0.338.
In the case of `CCOc1cc(C(c2c(C)[nH][nH]c2=O)c2c(C)[nH][nH]c2=O)ccc1OCc1ccc([N+](=O)[O-])cc1` it was -0.27.
As for `CC1CC(C)(C)NC(=S)S1` (stereo unspecified), the z-score is -0.145.
In turn, `COC(=O)c1cc2oc(C)cc2n1CC(=O)Nc1ccc(OC)c(OC)c1OC` came in with a z-score of -0.587.
As for `Cc1cc(Cl)ccc1N1C(=O)CC(SCCC(=O)O)C1=O` (stereo unspecified), the z-score is 0.0171.
To `N#C/C(=C(/O)COc1cccc2ccccc12)c1nc2ccccc2[nH]1` belongs -0.201.
